Measurements from paper PMC12820563, “FoxP3 forms a head-to-head dimer in vivo and stabilizes its multimerization on adjacent microsatellites”.
The other results are listed elsewhere or left out.

target: T1, MBP-FoxP1dN (Mus musculus, UniProt P58462 326-579); test: PD-seq (MBP pull-down with sequencing); 20 mM Tris-HCl pH 7.5, 100 mM NaCl, 1.5 mM MgCl2, 0.4 uM protein, 0.1 uM dsDNA library, 30 min, room temperature, amylose pull-down; high values mean tight binding; details: protein: recombinant; tags: His6-MBP; chain copies: 2; dsDNA, one strand shown
T1 sequence: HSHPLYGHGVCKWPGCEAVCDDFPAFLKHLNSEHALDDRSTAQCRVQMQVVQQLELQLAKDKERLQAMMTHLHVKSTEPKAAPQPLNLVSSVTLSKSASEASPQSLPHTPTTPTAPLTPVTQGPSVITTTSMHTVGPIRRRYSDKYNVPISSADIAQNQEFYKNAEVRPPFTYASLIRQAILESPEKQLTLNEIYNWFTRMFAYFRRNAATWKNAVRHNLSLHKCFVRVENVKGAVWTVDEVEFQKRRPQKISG
Summary of the method: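 Mouse FoxP3 or FoxP1 fragment lacking the N-terminus, His6-MBP-tagged and expressed in E. coli, was incubated at 0.4 µM with 0.1 µM Klenow-filled degenerate double-stranded DNA library for 30 min at room temperature in Tris pH 7.5 buffer with NaCl and MgCl2. Complexes captured on amylose resin were washed three times and their DNA sequenced on Illumina. Binding is reads-per-million enrichment of pull-down over input, replicates pooled.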

Row | Sequence | binding signal
1 | GATGATTGTTCTCCCAGCTGATGAATTCAAATTGTCGAGTAAACAAATTTTCCTAATCTTTCTGTTCAAGCGCCATCTAC | 0.924 RPM ratio (pull-down/input)
2 | GATGATTGTTCTCCCAGCTGATGAATTGTGTGAGTCGAGTAAACAAATTTTCCTAATCTTTCTGTTCAAGCGCCATCTAC | 1.07 RPM ratio (pull-down/input)
3 | GATGATTGTTCTCCCAGCTGATGAATTGTTCGGTTCGAGTAAACAAATTTTCCTAATCTTTCTGTTCAAGCGCCATCTAC | 1.03 RPM ratio (pull-down/input)
4 | GATGATTGTTCTCCCAGCTGATGAATTGAAGGGTTCGAGTAAACAAATTTTCCTAATCTTTCTGTTCAAGCGCCATCTAC | 0.759 RPM ratio (pull-down/input)
5 | GATGATTGTTCTCCCAGCTGATGAATTGTGAATTTCGAGTAAACAAATTTTCCTAATCTTTCTGTTCAAGCGCCATCTAC | 1.13 RPM ratio (pull-down/input)
6 | GATGATTGTTCTCCCAGCTGATGAATTCCTAATCTCGAGTAAACAAATTTTCCTAATCTTTCTGTTCAAGCGCCATCTAC | 0.834 RPM ratio (pull-down/input)
7 | GATGATTGTTCTCCCAGCTGATGAATTGTCTCTATCGAGTAAACAAATTTTCCTAATCTTTCTGTTCAAGCGCCATCTAC | 1.05 RPM ratio (pull-down/input)
8 | GATGATTGTTCTCCCAGCTGATGAATTATTGGTATCGAGTAAACAAATTTTCCTAATCTTTCTGTTCAAGCGCCATCTAC | 1.55 RPM ratio (pull-down/input)
9 | GATGATTGTTCTCCCAGCTGATGAATTTGCCCCGTCGAGTAAACAAATTTTCCTAATCTTTCTGTTCAAGCGCCATCTAC | 0.851 RPM ratio (pull-down/input)
10 | GATGATTGTTCTCCCAGCTGATGAATTATCTGGATCGAGTAAACAAATTTTCCTAATCTTTCTGTTCAAGCGCCATCTAC | 0.897 RPM ratio (pull-down/input)
11 | GATGATTGTTCTCCCAGCTGATGAATTGCGTAATTCGAGTAAACAAATTTTCCTAATCTTTCTGTTCAAGCGCCATCTAC | 1.22 RPM ratio (pull-down/input)
12 | GATGATTGTTCTCCCAGCTGATGAATTTTCCCGTTCGAGTAAACAAATTTTCCTAATCTTTCTGTTCAAGCGCCATCTAC | 0.9 RPM ratio (pull-down/input)
13 | GATGATTGTTCTCCCAGCTGATGAATTAACGGGTTCGAGTAAACAAATTTTCCTAATCTTTCTGTTCAAGCGCCATCTAC | 0.873 RPM ratio (pull-down/input)
14 | GATGATTGTTCTCCCAGCTGATGAATTCTACGGGTCGAGTAAACAAATTTTCCTAATCTTTCTGTTCAAGCGCCATCTAC | 0.727 RPM ratio (pull-down/input)
15 | GATGATTGTTCTCCCAGCTGATGAATTATAGGGGTCGAGTAAACAAATTTTCCTAATCTTTCTGTTCAAGCGCCATCTAC | 0.826 RPM ratio (pull-down/input)
16 | GATGATTGTTCTCCCAGCTGATGAATTCAATACATCGAGTAAACAAATTTTCCTAATCTTTCTGTTCAAGCGCCATCTAC | 1.19 RPM ratio (pull-down/input)
17 | GATGATTGTTCTCCCAGCTGATGAATTAATCTCGTCGAGTAAACAAATTTTCCTAATCTTTCTGTTCAAGCGCCATCTAC | 0.852 RPM ratio (pull-down/input)
18 | GATGATTGTTCTCCCAGCTGATGAATTCTAGACCTCGAGTAAACAAATTTTCCTAATCTTTCTGTTCAAGCGCCATCTAC | 0.748 RPM ratio (pull-down/input)
19 | GATGATTGTTCTCCCAGCTGATGAATTGGCGCTCTCGAGTAAACAAATTTTCCTAATCTTTCTGTTCAAGCGCCATCTAC | 0.812 RPM ratio (pull-down/input)
20 | GATGATTGTTCTCCCAGCTGATGAATTAAAGGAGTCGAGTAAACAAATTTTCCTAATCTTTCTGTTCAAGCGCCATCTAC | 0.848 RPM ratio (pull-down/input)

Row | Sequence | binding signal
21 | GATGATTGTTCTCCCAGCTGATGAATTGAGCCGCTCGAGTAAACAAATTTTCCTAATCTTTCTGTTCAAGCGCCATCTAC | 0.734 RPM ratio (pull-down/input)
22 | GATGATTGTTCTCCCAGCTGATGAATTGATGTGATCGAGTAAACAAATTTTCCTAATCTTTCTGTTCAAGCGCCATCTAC | 1.17 RPM ratio (pull-down/input)
23 | GATGATTGTTCTCCCAGCTGATGAATTAGCGTCCTCGAGTAAACAAATTTTCCTAATCTTTCTGTTCAAGCGCCATCTAC | 0.872 RPM ratio (pull-down/input)
24 | GATGATTGTTCTCCCAGCTGATGAATTCCCAATTTCGAGTAAACAAATTTTCCTAATCTTTCTGTTCAAGCGCCATCTAC | 0.913 RPM ratio (pull-down/input)
25 | GATGATTGTTCTCCCAGCTGATGAATTAAGATCCTCGAGTAAACAAATTTTCCTAATCTTTCTGTTCAAGCGCCATCTAC | 0.78 RPM ratio (pull-down/input)
26 | GATGATTGTTCTCCCAGCTGATGAATTGTTAGTATCGAGTAAACAAATTTTCCTAATCTTTCTGTTCAAGCGCCATCTAC | 1.76 RPM ratio (pull-down/input)
27 | GATGATTGTTCTCCCAGCTGATGAATTGCCAAAGTCGAGTAAACAAATTTTCCTAATCTTTCTGTTCAAGCGCCATCTAC | 0.982 RPM ratio (pull-down/input)
28 | GATGATTGTTCTCCCAGCTGATGAATTATAATTCTCGAGTAAACAAATTTTCCTAATCTTTCTGTTCAAGCGCCATCTAC | 0.978 RPM ratio (pull-down/input)
29 | GATGATTGTTCTCCCAGCTGATGAATTTACCTAATCGAGTAAACAAATTTTCCTAATCTTTCTGTTCAAGCGCCATCTAC | 1.47 RPM ratio (pull-down/input)
30 | GATGATTGTTCTCCCAGCTGATGAATTGGATGTCTCGAGTAAACAAATTTTCCTAATCTTTCTGTTCAAGCGCCATCTAC | 0.868 RPM ratio (pull-down/input)
31 | GATGATTGTTCTCCCAGCTGATGAATTTTATATTTCGAGTAAACAAATTTTCCTAATCTTTCTGTTCAAGCGCCATCTAC | 1.07 RPM ratio (pull-down/input)
32 | GATGATTGTTCTCCCAGCTGATGAATTATCCACGTCGAGTAAACAAATTTTCCTAATCTTTCTGTTCAAGCGCCATCTAC | 0.947 RPM ratio (pull-down/input)
33 | GATGATTGTTCTCCCAGCTGATGAATTGTACGCGTCGAGTAAACAAATTTTCCTAATCTTTCTGTTCAAGCGCCATCTAC | 0.979 RPM ratio (pull-down/input)
34 | GATGATTGTTCTCCCAGCTGATGAATTAATCTGCTCGAGTAAACAAATTTTCCTAATCTTTCTGTTCAAGCGCCATCTAC | 0.843 RPM ratio (pull-down/input)
35 | GATGATTGTTCTCCCAGCTGATGAATTAAGCGTGTCGAGTAAACAAATTTTCCTAATCTTTCTGTTCAAGCGCCATCTAC | 1.02 RPM ratio (pull-down/input)
36 | GATGATTGTTCTCCCAGCTGATGAATTCTAGTGCTCGAGTAAACAAATTTTCCTAATCTTTCTGTTCAAGCGCCATCTAC | 0.871 RPM ratio (pull-down/input)
37 | GATGATTGTTCTCCCAGCTGATGAATTCAGAGCCTCGAGTAAACAAATTTTCCTAATCTTTCTGTTCAAGCGCCATCTAC | 0.814 RPM ratio (pull-down/input)
38 | GATGATTGTTCTCCCAGCTGATGAATTGGCGACCTCGAGTAAACAAATTTTCCTAATCTTTCTGTTCAAGCGCCATCTAC | 0.778 RPM ratio (pull-down/input)
39 | GATGATTGTTCTCCCAGCTGATGAATTACCTAGGTCGAGTAAACAAATTTTCCTAATCTTTCTGTTCAAGCGCCATCTAC | 0.892 RPM ratio (pull-down/input)
40 | GATGATTGTTCTCCCAGCTGATGAATTTCTAGCCTCGAGTAAACAAATTTTCCTAATCTTTCTGTTCAAGCGCCATCTAC | 0.814 RPM ratio (pull-down/input)
